For 63 sequences, binding signal (RPM ratio (pull-down/input)) results are on record in PMC12820563.

The other results are listed elsewhere or left out. The list includes weakly bound sequences.

The target of this assay is T1, MBP-FoxP3dN (UniProt Q99JB6).
T1 sequence: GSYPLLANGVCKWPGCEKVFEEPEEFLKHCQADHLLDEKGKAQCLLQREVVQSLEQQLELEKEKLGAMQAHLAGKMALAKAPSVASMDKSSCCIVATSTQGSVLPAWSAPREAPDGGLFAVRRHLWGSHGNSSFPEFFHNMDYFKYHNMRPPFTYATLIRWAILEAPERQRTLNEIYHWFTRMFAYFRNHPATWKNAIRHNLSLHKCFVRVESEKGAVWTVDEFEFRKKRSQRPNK
Description: PD-seq (MBP pull-down with sequencing). The note with it: 20 mM Tris-HCl pH 7.5, 100 mM NaCl, 1.5 mM MgCl2, 0.4 uM protein, 0.1 uM dsDNA library, 30 min, room temperature, amylose pull-down; high values mean tight binding; double strand, one strand shown.
On to “GATGATTGTTCTCCCAGCTGATGAATTCAAGTACTCGAGTAAACAAATTTTCCTAATCTTTCTGTTCAAGCGCCATCTAC”, for which the binding signal (RPM ratio (pull-down/input)) is 0.42.
Under “GATGATTGTTCTCCCAGCTGATGAATTTCCCTCGTCGAGTAAACAAATTTTCCTAATCTTTCTGTTCAAGCGCCATCTAC” stands 0.234; under “GATGATTGTTCTCCCAGCTGATGAATTGTAGCACTCGAGTAAACAAATTTTCCTAATCTTTCTGTTCAAGCGCCATCTAC”, 0.959; under “GATGATTGTTCTCCCAGCTGATGAATTCTATCAATCGAGTAAACAAATTTTCCTAATCTTTCTGTTCAAGCGCCATCTAC”, 0.358.
On to “GATGATTGTTCTCCCAGCTGATGAATTGGAGTACTCGAGTAAACAAATTTTCCTAATCTTTCTGTTCAAGCGCCATCTAC”, for which the binding signal (RPM ratio (pull-down/input)) stood at 0.523.
For “GATGATTGTTCTCCCAGCTGATGAATTTCTACGGTCGAGTAAACAAATTTTCCTAATCTTTCTGTTCAAGCGCCATCTAC” the value was 0.202; for “GATGATTGTTCTCCCAGCTGATGAATTCGTTCAATCGAGTAAACAAATTTTCCTAATCTTTCTGTTCAAGCGCCATCTAC”, 0.256; for “GATGATTGTTCTCCCAGCTGATGAATTGCCTTGGTCGAGTAAACAAATTTTCCTAATCTTTCTGTTCAAGCGCCATCTAC”, 0.59.
For “GATGATTGTTCTCCCAGCTGATGAATTTCCACCTTCGAGTAAACAAATTTTCCTAATCTTTCTGTTCAAGCGCCATCTAC” the value was 0.274; for “GATGATTGTTCTCCCAGCTGATGAATTTATCACGTCGAGTAAACAAATTTTCCTAATCTTTCTGTTCAAGCGCCATCTAC”, 1.66.
Regarding “GATGATTGTTCTCCCAGCTGATGAATTGCTCTCGTCGAGTAAACAAATTTTCCTAATCTTTCTGTTCAAGCGCCATCTAC”, the binding signal (RPM ratio (pull-down/input)) stood at 0.506.
As to “GATGATTGTTCTCCCAGCTGATGAATTGTTATGATCGAGTAAACAAATTTTCCTAATCTTTCTGTTCAAGCGCCATCTAC”, the binding signal (RPM ratio (pull-down/input)) was found to be 3.78.
Consider “GATGATTGTTCTCCCAGCTGATGAATTACATCCTTCGAGTAAACAAATTTTCCTAATCTTTCTGTTCAAGCGCCATCTAC”, for which the binding signal (RPM ratio (pull-down/input)) turned out to be 0.461.
“GATGATTGTTCTCCCAGCTGATGAATTCGGAGCATCGAGTAAACAAATTTTCCTAATCTTTCTGTTCAAGCGCCATCTAC”: the binding signal (RPM ratio (pull-down/input)) turned out to be 0.645.
For “GATGATTGTTCTCCCAGCTGATGAATTGAAAACATCGAGTAAACAAATTTTCCTAATCTTTCTGTTCAAGCGCCATCTAC” the value was 1.27; for “GATGATTGTTCTCCCAGCTGATGAATTGGGCCCATCGAGTAAACAAATTTTCCTAATCTTTCTGTTCAAGCGCCATCTAC”, 0.916.
On to “GATGATTGTTCTCCCAGCTGATGAATTATATGGGTCGAGTAAACAAATTTTCCTAATCTTTCTGTTCAAGCGCCATCTAC”, for which the binding signal (RPM ratio (pull-down/input)) amounted to 0.505.
Under “GATGATTGTTCTCCCAGCTGATGAATTTTTAGCCTCGAGTAAACAAATTTTCCTAATCTTTCTGTTCAAGCGCCATCTAC” stands 0.414.
For “GATGATTGTTCTCCCAGCTGATGAATTGTGACCTTCGAGTAAACAAATTTTCCTAATCTTTCTGTTCAAGCGCCATCTAC” the value was 0.695; for “GATGATTGTTCTCCCAGCTGATGAATTCGAGGCATCGAGTAAACAAATTTTCCTAATCTTTCTGTTCAAGCGCCATCTAC”, 0.784; for “GATGATTGTTCTCCCAGCTGATGAATTTAGGACCTCGAGTAAACAAATTTTCCTAATCTTTCTGTTCAAGCGCCATCTAC”, 0.374.
For “GATGATTGTTCTCCCAGCTGATGAATTCAACAAGTCGAGTAAACAAATTTTCCTAATCTTTCTGTTCAAGCGCCATCTAC” the value was 0.357; for “GATGATTGTTCTCCCAGCTGATGAATTCCCGGCGTCGAGTAAACAAATTTTCCTAATCTTTCTGTTCAAGCGCCATCTAC”, 0.34.
Turning to “GATGATTGTTCTCCCAGCTGATGAATTGCCCTTCTCGAGTAAACAAATTTTCCTAATCTTTCTGTTCAAGCGCCATCTAC”, the binding signal (RPM ratio (pull-down/input)) was found to be 0.466.
Under “GATGATTGTTCTCCCAGCTGATGAATTGACTCGGTCGAGTAAACAAATTTTCCTAATCTTTCTGTTCAAGCGCCATCTAC” stands 0.231; under “GATGATTGTTCTCCCAGCTGATGAATTGCATATCTCGAGTAAACAAATTTTCCTAATCTTTCTGTTCAAGCGCCATCTAC”, 1.4.
For “GATGATTGTTCTCCCAGCTGATGAATTTCATTTTTCGAGTAAACAAATTTTCCTAATCTTTCTGTTCAAGCGCCATCTAC” the value was 0.783.
“GATGATTGTTCTCCCAGCTGATGAATTAGCTCCCTCGAGTAAACAAATTTTCCTAATCTTTCTGTTCAAGCGCCATCTAC”: the binding signal (RPM ratio (pull-down/input)) worked out at 0.291.
As to “GATGATTGTTCTCCCAGCTGATGAATTGAGCTGGTCGAGTAAACAAATTTTCCTAATCTTTCTGTTCAAGCGCCATCTAC”, the binding signal (RPM ratio (pull-down/input)) is 0.419.
For “GATGATTGTTCTCCCAGCTGATGAATTCAAAAGCTCGAGTAAACAAATTTTCCTAATCTTTCTGTTCAAGCGCCATCTAC” the value was 0.216.
Under “GATGATTGTTCTCCCAGCTGATGAATTGTTACTGTCGAGTAAACAAATTTTCCTAATCTTTCTGTTCAAGCGCCATCTAC” stands 0.78; under “GATGATTGTTCTCCCAGCTGATGAATTATTAGTATCGAGTAAACAAATTTTCCTAATCTTTCTGTTCAAGCGCCATCTAC”, 1.6.
Turning to “GATGATTGTTCTCCCAGCTGATGAATTTGCGCCTTCGAGTAAACAAATTTTCCTAATCTTTCTGTTCAAGCGCCATCTAC”, the binding signal (RPM ratio (pull-down/input)) is 3.88.
Under “GATGATTGTTCTCCCAGCTGATGAATTCGCCTCATCGAGTAAACAAATTTTCCTAATCTTTCTGTTCAAGCGCCATCTAC” stands 1.28; under “GATGATTGTTCTCCCAGCTGATGAATTCAACCCATCGAGTAAACAAATTTTCCTAATCTTTCTGTTCAAGCGCCATCTAC”, 0.37.
Consider “GATGATTGTTCTCCCAGCTGATGAATTTTCATACTCGAGTAAACAAATTTTCCTAATCTTTCTGTTCAAGCGCCATCTAC”, for which the binding signal (RPM ratio (pull-down/input)) was 0.354.
For “GATGATTGTTCTCCCAGCTGATGAATTTCTCTTGTCGAGTAAACAAATTTTCCTAATCTTTCTGTTCAAGCGCCATCTAC” the value was 0.265; for “GATGATTGTTCTCCCAGCTGATGAATTACGCATATCGAGTAAACAAATTTTCCTAATCTTTCTGTTCAAGCGCCATCTAC”, 3.11; for “GATGATTGTTCTCCCAGCTGATGAATTGCTGATCTCGAGTAAACAAATTTTCCTAATCTTTCTGTTCAAGCGCCATCTAC”, 0.759.
For “GATGATTGTTCTCCCAGCTGATGAATTGCCTGTTTCGAGTAAACAAATTTTCCTAATCTTTCTGTTCAAGCGCCATCTAC” the value was 0.914.
Under “GATGATTGTTCTCCCAGCTGATGAATTTATTCCCTCGAGTAAACAAATTTTCCTAATCTTTCTGTTCAAGCGCCATCTAC” stands 0.81; under “GATGATTGTTCTCCCAGCTGATGAATTCACAGGCTCGAGTAAACAAATTTTCCTAATCTTTCTGTTCAAGCGCCATCTAC”, 0.255; under “GATGATTGTTCTCCCAGCTGATGAATTCGGGTTGTCGAGTAAACAAATTTTCCTAATCTTTCTGTTCAAGCGCCATCTAC”, 0.775.
As to “GATGATTGTTCTCCCAGCTGATGAATTCAGAAAGTCGAGTAAACAAATTTTCCTAATCTTTCTGTTCAAGCGCCATCTAC”, the binding signal (RPM ratio (pull-down/input)) amounted to 0.188.
Under “GATGATTGTTCTCCCAGCTGATGAATTTAGCATGTCGAGTAAACAAATTTTCCTAATCTTTCTGTTCAAGCGCCATCTAC” stands 5.25; under “GATGATTGTTCTCCCAGCTGATGAATTCTAGGTATCGAGTAAACAAATTTTCCTAATCTTTCTGTTCAAGCGCCATCTAC”, 0.464.
For “GATGATTGTTCTCCCAGCTGATGAATTTCTATAATCGAGTAAACAAATTTTCCTAATCTTTCTGTTCAAGCGCCATCTAC” the value was 0.307; for “GATGATTGTTCTCCCAGCTGATGAATTAATCATCTCGAGTAAACAAATTTTCCTAATCTTTCTGTTCAAGCGCCATCTAC”, 1.02.
For “GATGATTGTTCTCCCAGCTGATGAATTCAGAAGTTCGAGTAAACAAATTTTCCTAATCTTTCTGTTCAAGCGCCATCTAC” the value was 0.234; for “GATGATTGTTCTCCCAGCTGATGAATTCTACATATCGAGTAAACAAATTTTCCTAATCTTTCTGTTCAAGCGCCATCTAC”, 0.452.
On to “GATGATTGTTCTCCCAGCTGATGAATTGGGTTGATCGAGTAAACAAATTTTCCTAATCTTTCTGTTCAAGCGCCATCTAC”, for which the binding signal (RPM ratio (pull-down/input)) worked out at 1.06.
Under “GATGATTGTTCTCCCAGCTGATGAATTATACTGATCGAGTAAACAAATTTTCCTAATCTTTCTGTTCAAGCGCCATCTAC” stands 0.461.
Under “GATGATTGTTCTCCCAGCTGATGAATTAGGTGCCTCGAGTAAACAAATTTTCCTAATCTTTCTGTTCAAGCGCCATCTAC” stands 0.963; under “GATGATTGTTCTCCCAGCTGATGAATTGAACCCATCGAGTAAACAAATTTTCCTAATCTTTCTGTTCAAGCGCCATCTAC”, 0.31.
With “GATGATTGTTCTCCCAGCTGATGAATTCGTTCGATCGAGTAAACAAATTTTCCTAATCTTTCTGTTCAAGCGCCATCTAC”, the binding signal (RPM ratio (pull-down/input)) is 0.278.
Under “GATGATTGTTCTCCCAGCTGATGAATTCGACGAGTCGAGTAAACAAATTTTCCTAATCTTTCTGTTCAAGCGCCATCTAC” stands 0.246; under “GATGATTGTTCTCCCAGCTGATGAATTACCTGTCTCGAGTAAACAAATTTTCCTAATCTTTCTGTTCAAGCGCCATCTAC”, 0.375; under “GATGATTGTTCTCCCAGCTGATGAATTTGCATGTTCGAGTAAACAAATTTTCCTAATCTTTCTGTTCAAGCGCCATCTAC”, 3.83.
Under “GATGATTGTTCTCCCAGCTGATGAATTCAGGAGCTCGAGTAAACAAATTTTCCTAATCTTTCTGTTCAAGCGCCATCTAC” stands 0.191.
Consider “GATGATTGTTCTCCCAGCTGATGAATTTTGGGTATCGAGTAAACAAATTTTCCTAATCTTTCTGTTCAAGCGCCATCTAC”, for which the binding signal (RPM ratio (pull-down/input)) is 0.819.
For “GATGATTGTTCTCCCAGCTGATGAATTCTCTTTCTCGAGTAAACAAATTTTCCTAATCTTTCTGTTCAAGCGCCATCTAC” the value was 0.337.
Under “GATGATTGTTCTCCCAGCTGATGAATTGTCGCTTTCGAGTAAACAAATTTTCCTAATCTTTCTGTTCAAGCGCCATCTAC” stands 1.28.
On to “GATGATTGTTCTCCCAGCTGATGAATTATTGATCTCGAGTAAACAAATTTTCCTAATCTTTCTGTTCAAGCGCCATCTAC”, for which the binding signal (RPM ratio (pull-down/input)) amounted to 1.15.
